# Patent EP1214397B1, “METHOD FOR THE SELECTIVE PROTECTION OF PROLIFERATING NORMAL CELLS AND THE SELECTIVE ERADICATION OF TUMOR CELLS HAVING AN INACTIVE P53 PATHWAY” (UNIVERSITA' DEGLI STUDI DI ROMA "LA SAPIENZA", priority 1999, dated 2001)
# Legend:
# tumor cells in culture = experiment: Dose/response: concentration eradicating proliferating / tumor cells (CBCT); assay type: cell-based
# Description: Concerning the concentration of class B compound (CBCT), it is comprised in a range that should be calculated as a function of the CT, the target tumor cell type and the half-life in culture of the administered class B compound.
# In particular, for the trifluorothymidine this concentration is greater than or equal to 40 µM, in particular comprised in the range 10µM - 800 µM, preferably 50 µM; for the cytarabine, this concentration is generally greater than or equal to 40 µM, in particular comprised in the range 40 µM - 600 µM, preferably 40 µM; for the 6-thioguanine, this concentration is generally greater than or equal to 50 µM, in particular a concentration comprised in the range 50 µM - 600 µM, preferably 100 µM.
# In fact, by virtue of the protective action of the class A compound on the normal cells, such concentration may be increased up to 10-20 fold the mentioned minimum concentration thereof.
# C3H10T1/2v-src/v-myc = experiment: Focus-forming assay, culture of tumor cells alone (Examples 3, 9); assay type: cell-based, mouse; conditions: C3H10T1/2 v-src/v-myc alone, 5×10^2 cells per plate; percentage of treated with respect to untreated (=100); 400 nM CD T0-T84; class B drug T24-T72 (40 µM 3FT, 80 µM 2ClAd, 40µM Ara C)
# [1] = system: mixed culture of C3H10T1/2 and C3H10T1/2v-src/v-myc; experiment: Focus-forming assay, mixed culture of normal and tumor cells (Examples 3, 9)
# [2] = system: C3H10T1/2 cells reversibly arrested in G0/G1 by growth factor deprivation; conditions: mouse, 48 h, 80 µM
# Description: The choice of carrying out the assays on cells arrested in the G0/G1 phase by growth factor deprivation rather than on cells treated with cytochalasin D or analogues thereof was made for ease of assaying.
# In a first assay 40µM 3FT for 48 h, in a second assay Ara C 40µM for 48 h, in a third assay 80µM 2ClAd for 48 h, in a fourth assay 100µM 6 thioguanine (6Thg) for 48 h, in a fifth assay 1µg/ml Doxorubicine (Doxo) for 48 h have been administered on the G0/G1 arrested C3H10T1/2 cells.
# The above concentrations are the minimum for killing proliferating cells calculated on the basis of cell cycle duration.
# After release from drug treatment, cells were washed 2x and left in low serum for other 12 h, to allow washing of residual drugs under non-proliferating conditions.
# After the 24 h period in low serum, proliferation medium (DMEM +10% FCS), supplemented with 20µM BrdU in order to mark the DNA-synthesizing cells, has been additioned to the cell culture. After a 24-h stimulation, the cells have been fixed and processed as reported in Grossi et al. 1991 (18). The percentage of DNA-synthesizing cells in the 24-h labeling period has been detected by immunofluorescence, as reported in Grossi et al. 1991 (18).
# The culture and assay conditions are those described in example 10, except for the pharmacological treatment, which in the present assay series consists of the following.
# normal cells = experiment: Dose/response: concentration arresting normal cells in the intermitotic phase (CAP); assay type: cell-based; conditions: standard conditions
# Description: It generally results in cell cycle arrest at the binucleate stage in at least 40% of class A compounds treated proliferating normal cells, using the minimal drug concentration (i.e. sufficient to reversible induce its effects, on target cells, without causing significant damage, experimentally defined by dose/response curves), giving the above result without significant toxicity and an incubation time generally ranging from 12 to 48 hours depending on cell type.
# As to the CAP parameter, the corresponding value is a class A compound concentration causing the arrest of at least the 40% of normal cells in the intermitotic stage; such concentration is experimental deduced by dose/response experiments that define the appropriate value range for different cell types and compounds.
# For the above class A compounds, under standard conditions this value ranges within 1 nM to 40 µM concentrations.. Under standard conditions for instance, the CAP value for cytochalasin D is preferably comprised within the range 20 nM-2 µM, and in a preferred embodiment it is of 400 nM.; for the dihydrocytochalasin B, it is comprised in the range 600 nM - 8µM, and in a preferred embodiment it is of 2µM; for the jasplakinolide, it is comprised in the range 50 nM - 3µM and in a preferred embodiment it is of 700nM; for the latrunculin B it is comprised in the range 500nM - 2 µM and in a preferred embodiment it is of 650nM; for the chondramide B, it is comprised in the range 10 - 800 nM and in a preferred embodiment it is of 100nM. Said preferred concentrations are the CAP value corresponding to the minimum concentration under standard conditions required for reaching the arrest in intermitotic phase of the normal cells to be protected (minimum functional concentration), but could also be higher.
# In the light of these tests, the CAP and CACT values to be assigned to several class A compounds as the concentration range yielding the cytodieresis arrest, and, within said concentration range, the value of the minimum concentration required for attaining this effect, forming the preferred embodiment, has been determined. These values are those reported in the summary of the invention.
# [3] = system: C3H10T1/2v-src/v-myc cells; assay type: cell-based, mouse; conditions: 4µCi/ml tritiated thymidine 5 h after 24 h drug (3000 nM CB, 400 nM CD, 650 nM Latrunculin B, 700 nM Jasplakinolide, 100 nM Condramide); control 505 cpm/µg
# Description: In order to verify a possible interference on 3FT uptake by tumor cells, the compounds mentioned in example 7 have been assayed on C3H10T1/2v-src/v-myc cells, measuring the uptake of tritiated thymidine. It is well known in fact that the uptake mechanism of the latter and that of 3FT (and generally of antimetabolites) are the same (6).
# Cells have been plated in a 24-well plate, with a 5x10^4 cells/well and the assays have been carried out under standard culture conditions, as described in example 1.
# In a first assay 3000 nM CB for 24 h, in a second assay 400 nM CD for 24 h, in a third assays 650 nM Latrunculin B for 24 h, in a fourth assay 700 nM Jasplakinolide for 24 h and in a fifth assay 100 nM Condramide for 24 h, have been administered on the C3H10T1/2v-src/v-myc.
# After said administrations, a 4µCi/ml tritiated Thymidine uptake has been carried out for 5 h for each assay, the above mentioned compounds being still present. Cells have been therefore washed 2x with PBS, extracted with 5% cold trichloroacetic acid and subsequently NaOH-lysed.
# The various samples once additioned with scintillation liquid, have been analyzed in a β-counter. The emission values, normalized for the amount of proteins in each sample (quantified by Lowry method) are expressed in count values for min/microgram protein in column 3. As controls there have been considered: • a first C3H10T1/2v-src/v-myc cell culture let free to proliferate for the overall assay (12 h + 24 h + 5 h) the radioactivity thereof being determined at the β-counter. • a second C3H10T1/2v-src-myc cell culture let free to proliferate for the initial 12 h and for the pharmacological treatment assay (12 h + 24 h), then subjected to the uptake of 4µCi/ml tritiated thymidine for 5 h and subsequently subjected to uptake determination at the β-counter.
# C3H 10T1/2(v-src/v-myc) = experiment: Colony forming assay, interference with 3FT toxic effects on tumor cells (Example 6); assay type: cell-based, mouse; conditions: 5×10^2 cell/60mm; 400 nM CD or 3 µM CB T0-T84; 30 µM 3FT T24-T72; untreated 111
# Description: In order to verify any possible interference between CD and 3FT actions on tumor cells, a series of colony forming assays has been carried out on C3H 10T1/2(v-src/v-myc).
# The cells have been therefore plated on 60mm plates at a 5×10^2 cell/60mm density, at the culture conditions described in example 3, and the initial time of 12 hours have been subjected to the following treatments.
# After the above administrations, cells were treated as described in example 3.
# C3H10T1/2 = experiment: Colony formation assay, monoculture (Example 4; Table 9); assay type: cell-based, mouse
# Description: (§1) In order to quantify the effects of the combined CD/3FT use of the above example 3, the first, second and third assay series described in example 4 has been carried out on monocultures at a cell density allowing countable colonies.
# (§2) The culture conditions, compounds concentrations, and treatments are the same described in example 3, with the exception of the cell system used have been for the first assay series a monoculture of C3H 10T1/2 cells at the clonal densities of 1×10^3, 5×10^3 and 1×10^4, for the second assay series a monoculture of C3H 10T1/2v-src/v-myc cells at the clonal densities of 5×10^2, 1×10^3 and 5×10^3, and for the third assay series a monoculture of L cells at the clonal densities of 5×10^2, 1×10^3 and 5×10^3.
# (§3) The results of the assay series described in example 4 above carried out using dihydrocytochalasin B (referred to as H2CB in the table) and 3FT is reported in the following table 9.
# C3H 10T1/2v-src/v-myc = experiment: as above; assay type: cell-based, mouse; conditions: C3H10T1/2 v-src/v-myc
# Description: as §1, §2, §3
compound,measurement,setting,value
Nc1nc(Cl)nc2c1ncn2[C@H]1C[C@H](O)[C@@H](CO)O1 [2ClAd],minimum concentration for killing at least 90% of the proliferating cells,tumor cells in culture; within the time of the combined treatment (48 h),80 µM
same,number of transformation foci,C3H10T1/2v-src/v-myc,0
same,number of transformation foci,"[1]; mixed culture, second entry of the cell (tumor cells), percentage of treated with respect to untreated (=100), 400 nM CD T0-T84, class B drug T24-T72 (40 µM 3FT, 80 µM 2ClAd, 40µM Ara C)",0 0
same,monolayer saturation density (number of cells per surface unit) lower with respect to the other cases,[1]; monolayer reformed after the CD/2ClAd treatment,about 1/3
same,proliferation restart time,[1]; normal cell monolayer reforming after combined treatment with CD (description),14 days
same,percentage of cells entering S phase (maintained proliferation potential),[2],3%
same,percentage of cells entering S phase compared to the untreated control,[2],6%
same,percentage of residual adherent cells,[2],97%
"Nc1nc2nc[nH]c2c(=S)[nH]1 [6ThG, 6-thioguanine]","CBCT, minimum functional concentration required to eradicate tumor cells in culture",tumor cells in culture; standard conditions,100 µM
C/C1=C\[C@H](C)C[C@H](C)OC(=O)C[C@H](c2ccc(O)cc2)NC(=O)[C@@H](Cc2c(Br)[nH]c3ccccc23)N(C)C(=O)[C@H](C)NC(=O)[C@@H](C)C1 [Jasplakinolide],"CAP, minimum functional concentration for arrest in intermitotic phase of normal cells",normal cells,700 nM
same,"tritiated thymidine uptake, emission values",[3],559 cpm/µg
C/C1=C/C(=O)O[C@@H]2C[C@@H](CC[C@H](C)/C=C\CC1)O[C@@](O)([C@@H]1CSC(=O)N1)C2 [Latrunculin B],"CAP, minimum functional concentration for arrest in intermitotic phase of normal cells",normal cells,650 nM
same,"tritiated thymidine uptake, emission values",[3],283 cpm/µg
C=C1[C@@H](C)[C@H]2[C@H](Cc3ccccc3)NC(=O)[C@]23OC(=O)/C=C/[C@H](O)CCC[C@@H](C)C/C=C/[C@H]3[C@@H]1O [cytochalasin B],"tritiated thymidine uptake, emission values",[3],223 cpm/µg
same,Colonies,C3H 10T1/2(v-src/v-myc),41
"C=C1[C@@H](C)[C@H]2[C@H](Cc3ccccc3)NC(=O)[C@]23OC(=O)CC[C@H](O)CCC[C@@H](C)C/C=C/[C@H]3[C@@H]1O [dihydrocytochalasin B, 21,22-dihydrocytochalasin B]","CAP, minimum functional concentration for arrest in intermitotic phase of normal cells",normal cells,2000 nM
same,number of colonies,"C3H10T1/2; C3H10T1/2, 1×10^3 cells, class A drug T0-T84 (400 nM CD or H2CB), 40 µM 3FT T24-T72",58
same,number of colonies,"C3H10T1/2; C3H10T1/2, 1×10^4 cells, class A drug T0-T84, 40 µM 3FT T24-T72",Confluent
same,number of colonies,"C3H10T1/2; C3H10T1/2, 5×10^3 cells, class A drug T0-T84, 40 µM 3FT T24-T72",Confluent
same,number of colonies,"C3H 10T1/2v-src/v-myc; 1×10^3 cells, class A drug T0-T84, 40 µM 3FT T24-T72",38
same,number of colonies,"C3H 10T1/2v-src/v-myc; 5×10^2 cells, class A drug T0-T84 (400 nM CD or H2CB), 40 µM 3FT T24-T72",21
same,number of colonies,"C3H 10T1/2v-src/v-myc; 5×10^3 cells, class A drug T0-T84, 40 µM 3FT T24-T72",Confluent
